Experimental data published in patent US20230416410A1 (ZOETIS SERVICES, published 2023).

Columns and labels:
[1] = target: T1, complement component C1q (in bovine complement preserved serum) (bovine, UniProt Q5E9E3 23-244; Q2KIV9 23-247); test: cell-based or functional assay
recombinant bovine FcgR1 [2] = target: T2, recombinant bovine FcgR1 (bovine, biotin on the BAP tag (BirA)); test: SPR Biacore, biotinylated receptor on SA sensor, pH 7.4, 15 C
T2 construct: also called bFcgR1; bFcgRI
Protocol: (§1) A Biacore SPR binding assay was designed to test the affinity of bovine IgG subclasses to bFcgR1, bFcgR2 and bFcgR3. All reported KD's were measured by Biacore (Cytiva, Marlborough, MA, USA) using series S SA sensor. Biotinylated-bovine FcgR1, R2 and R3 were captured on the sensor surface using a modified SA capture method to reach the desired surface density. 10 mM HEPES, 150 mM NaCl, 3 mM EDTA, 0.05% v/v surfactant P20, pH7.4 buffer was used as the running and titration buffer. Various concentrations of bovine CTLA4-Fc fusions or mAbs were titrated and flowed over the receptor surface and affinities were determined using Biacore T200 Evaluation software (Cytiva, Marlborough, MA, USA) with 1:1 binding model. The method of double referencing has been applied where the reference flow cell was subtracted from the flow cell containing immobilized receptors and blank runs containing buffer only were subtracted out from all runs. Flow cells were regenerated using 10 mM Glycine pH1.5. Runs were performed at 15° C.
Biacore methods for bFcgR1, R2, and R3 were performed as described in Examples above. […] Although the two allotypes have different KDs for bFcgR2 and bFcgR3, both wildtype allotypes do bind. All of the mutations, bIgG3Win, bIgG3WinSAS, bIgG3SAS and bIgG3SAP for both the a and b allotypes knocked down binding to bFcgR1, bFcgR2 and bFcgR3 to negligible affinities. […]

[3] = target: T1, complement component C1q (in bovine …); test: cell-based or functional assay; remark: listed apart in the source
[4] = target: T1, complement component C1q (in bovine …); test: cell-based or functional assay; remark: listed apart in the source
recombinant bovine FcgR1 [5] = target: T2, recombinant bovine FcgR1; test: SPR Biacore, biotinylated receptor on SA sensor, pH 7.4, 15 C; remark: listed apart in the source
T2 sequence (main, as listed by the source): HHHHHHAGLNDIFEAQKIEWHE
Protocol: as §1
The ability to knock out binding to bovine Fc gamma receptors was evaluated by comparing SPR Biacore bFcgR affinity of bIgG1a and bIgG1b wildtype Fc to the bIgG1a and bIgG1b mutations, described above. All mutations made to bIgG1 are identical for the a and b allotypes. Biacore methods for bFcgR1, R2, and R3 were performed as described in Example 1.

T1 sequence (Q5E9E3 23-244, chain 1 of 2): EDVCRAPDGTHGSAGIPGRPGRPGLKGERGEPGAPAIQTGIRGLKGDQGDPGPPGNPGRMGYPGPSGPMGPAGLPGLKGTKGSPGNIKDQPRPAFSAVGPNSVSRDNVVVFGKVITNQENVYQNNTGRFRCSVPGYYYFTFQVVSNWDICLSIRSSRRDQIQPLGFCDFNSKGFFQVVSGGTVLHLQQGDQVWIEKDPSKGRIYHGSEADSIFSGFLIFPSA
T1 sequence (Q2KIV9 23-247, chain 2 of 2, further chain): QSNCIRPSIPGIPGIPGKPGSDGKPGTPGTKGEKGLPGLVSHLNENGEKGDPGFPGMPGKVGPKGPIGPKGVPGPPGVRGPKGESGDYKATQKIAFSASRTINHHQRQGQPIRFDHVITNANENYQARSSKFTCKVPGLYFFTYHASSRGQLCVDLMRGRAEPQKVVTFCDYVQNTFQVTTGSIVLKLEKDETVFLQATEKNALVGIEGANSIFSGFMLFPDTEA

Binder	CDC EC50 Value [1]	Kd (recombinant bovine FcgR1 [2]) [nM]	CDC EC50 Value [3]	CDC EC50 Value [4]	Kd (recombinant bovine FcgR1 [5]) [nM]
CTLA4 Fc bIgG1a (Fc fusion, canine, No linker; also called bIgG1a wildtype; CTLA4 Fc bIgG1a wildtype) [sequence of about 120 residues not given]DPRCKTTCDCCPPPELPGGPSVFIFPPKPKDTLTISGTPEVTCVVVDVGHDDPEVKFSWFVDDVEVNTATTKPREEQFNSTYRVVSALRIQHQDWTGGKEFKCKVHNEGLPAPIVRTISRTKGPAREPQVYVLAPPQEELSKSTVSLTCMVTSFYPDYIAVEWQRNGQPESEDKYGTTPPQLDADGSYFLYSRLRVDRNSWQEGDTYTCVVMHEALHNHYTQKSTSKSAGK	0.013 µg/mL and 0.011 µg/mL	–	0.01 µg/mL and 0.015 µg/mL	0.013 µg/mL and 0.034 µg/mL	1.2
CTLA4 Fc bIgG1aSAP (Fc fusion, canine, No linker) [sequence of about 120 residues not given]DPRCKTTCDCCPPPELPGGPSVFIFPPKPKDTLTISGTPEVTCVVVDVGHDDPEVKFSWFVDDVEVNTATTKPREEQFNSTYRVVSALRIQHQDWTGGKEFKCKVHNEGLSAPIVRTISRTKGPAREPQVYVLAPPQEELSKSTVSLTCMVTSFYPDYIAVEWQRNGQPESEDKYGTTPPQLDADGSYFLYSRLRVDRNSWQEGDTYTCVVMHEALHNHYTQKSTSKSAGK	–	–	–	–	148
CTLA4 Fc bIgG1aWin (Fc fusion, canine, No linker) [sequence of about 120 residues not given]DPRCKTTCDCCPPPEAAGAPSVFIFPPKPKDTLTISGTPEVTCVVVDVGHDDPEVKFSWFVDDVEVNTATTKPREEQFNSTYRVVSALRIQHQDWTGGKEFKCKVHNEGLPAPIVRTISRTKGPAREPQVYVLAPPQEELSKSTVSLTCMVTSFYPDYIAVEWQRNGQPESEDKYGTTPPQLDADGSYFLYSRLRVDRNSWQEGDTYTCVVMHEALHNHYTQKSTSKSAGK	–	–	–	0.006 µg/mL	7.45

Next, values leading:

CDC EC50 Value [1]	Kd (recombinant bovine FcgR1 [2]) [nM]	CDC EC50 Value [3]	CDC EC50 Value [4]	Kd (recombinant bovine FcgR1 [5]) [nM]	Binder
0.021 µg/mL and 0.022 µg/mL	9.36	–	–	–	CTLA4 Fc bIgG3a (Fc fusion, canine, No linker; also called bIgG3a wildtype; CTLA4 Fc bIgG3a wildtype) [sequence of about 120 residues not given]TARRPVPTTPKTTIPPGKPTTPKSEVEKTPCQCSKCPEPLGGLSVFIFPPKPKDTLTISGTPEVTCVVVDVGQDDPEVQFSWFVDDVEVHTARTKPREEQFNSTYRVVSALRIQHQDWLQGKEFKCKVNNKGLPAPIVRTISRTKGQAREPQVYVLAPPREELSKSTLSLTCLITGFYPEEIDVEWQRNGQPESEDKYHTTAPQLDADGSYFLYSKLRVNKSSWQEGDHYTCAVMHEALRNHYKEKSISRSPGK
0.03 µg/mL	–	–	–	–	CTLA4 Fc bIgG3aWin (Fc fusion, canine) [sequence of about 120 residues not given]TARRPVPTTPKTTIPPGKPTTPKSEVEKTPCQCSKCPEAAGALSVFIFPPKPKDTLTISGTPEVTCVVVDVGQDDPEVQFSWFVDDVEVHTARTKPREEQFNSTYRVVSALRIQHQDWLQGKEFKCKVNNKGLPAPIVRTISRTKGQAREPQVYVLAPPREELSKSTLSLTCLITGFYPEEIDVEWQRNGQPESEDKYHTTAPQLDADGSYFLYSKLRVNKSSWQEGDHYTCAVMHEALRNHYKEKSISRSPGK
–	–	–	–	54.8	CTLA4 Fc bIgG1aWinSS (Fc fusion, canine, No linker) [sequence of about 120 residues not given]DPRCKTTCDCCPPPEAAGAPSVFIFPPKPKDTLTISGTPEVTCVVVDVGHDDPEVKFSWFVDDVEVNTATTKPREEQFNSTYRVVSALRIQHQDWTGGKEFKCKVHNEGLPSSIVRTISRTKGPAREPQVYVLAPPQEELSKSTVSLTCMVTSFYPDYIAVEWQRNGQPESEDKYGTTPPQLDADGSYFLYSRLRVDRNSWQEGDTYTCVVMHEALHNHYTQKSTSKSAGK

Values joined by “and” are separate entries in the source; they are usually repeats but may differ in a detail not shown here. Identical values can stand only once. Like-named read-outs stand apart in the source and are kept apart here.
